Test results taken from the supplement of paper PMC10126150.
Sequences with one replicate were seen in a single cluster, so their values are uncertain.

Tested on: ATP
Test: switch fluorescence ratio, 500 uM ATP over buffer (Cy3 cluster intensity, sum of 5 cycles each) (fold (ratio)); higher = stronger signal-on switching upon ATP binding; sequences stand for … in TCGTCGGCAGCGTCAGATGTGTATAAGAGACAGTTTTTTTTTTTTTTTTTTTTTTTTT…TC
Conditions: aptamer strand: ATP DNA aptamer (quencher-CACCTGGGGGAGTATTGCGGAGGAAGG + anchor), 100 nM annealed; ATP concentration: 500 uM; one replicate
Summary of the method: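 The quencher-labelled ATP aptamer, at 100 nM, was annealed to Cy3-labelled switching-strand clusters on a modified Illumina MiSeq flow-cell. The clusters were imaged in selection buffer, then after 15 min with 500 uM ATP at 22 °C, and this buffer/ATP cycle ran five times with NaOH stripping and re-annealing between runs. Per-cluster fluorescence ratios, summed target-cycle over summed buffer-cycle Cy3 intensity, were averaged per switch-domain sequence. Clusters outside 100-1000 RFU were excluded.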
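Also: ATP exposure 15 min at 22 °C before imaging.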

| Sequence | switch fluorescence ratio |
| --- | --- |
| GAAATTCCTT | 1.05 |
| ATGCCGACGA | 0.92 |
| CATGGAGTAT | 0.963 |
| GTTCTACGAG | 1 |
| GCTCGATGGA | 0.989 |
| CGCGTCAAAA | 1.01 |
| TCTGGCATTG | 1.02 |
| CTCCACCAGG | 2.96 |
| GGGAGAGCCA | 0.953 |
| GCTTGGTAT | 0.968 |
| TATGTTGCTC | 1.02 |
| TAGTTCAGAC | 0.988 |
| AACGTAGAGC | 0.964 |
| CATGATATGT | 0.994 |
| GATTTTGGGC | 0.993 |
| TCCTGACAAC | 1.17 |
| CAGATGGTT | 0.973 |
| ATCGTTTCAT | 1.01 |
| CAGCGTCGGA | 0.999 |
| TTTCTTCTCC | 1.16 |
| GATTACGGCA | 1.07 |
| ACTTTGTGTT | 1.02 |
| TCTCACTCTC | 1.02 |
| TCCTAATGTT | 0.995 |
| AAGGTGGAAA | 0.939 |
| AGATTGTA | 0.98 |

| Sequence | switch fluorescence ratio |
| --- | --- |
| CGCTCAGGGC | 1.02 |
| GTGTGCAAAG | 0.908 |
| ACAAAAAAAG | 0.978 |
| TTCGCTCGGC | 1 |
| CAAGAAAAAG | 1.01 |
| CGATGTCGGT | 0.975 |
| TTTGTCGTCA | 1.04 |
| TTATGTGTCA | 1.02 |
| GTTTTGATGT | 0.995 |
| AATCCCACGA | 1.04 |
| CATTCTATGT | 0.994 |
| ACCAACGACA | 1.4 |
| TGGAACAGAG | 1.03 |
| ACGATAAATG | 1.11 |
| ATTTAAGTCA | 1.01 |
| AAACTCAAAA | 0.963 |
| GCAACATTGG | 0.985 |
| CCGGAGGGCA | 1.22 |
| CGCTAGGGA | 1.02 |
| TACTATAGTT | 0.997 |
| ATGATGCGGT | 1.02 |
| GATCTATCGG | 0.974 |
| CTATATTAG | 0.949 |
| GCAAACTGGG | 1.07 |
| ATTATTGCAT | 1.02 |
| AAATTAAAAA | 1.02 |

| Sequence | switch fluorescence ratio |
| --- | --- |
| TTTTGATATG | 0.989 |
| TCGTAGCGTG | 0.99 |
| TAGCCTATTA | 0.97 |
| CACCGGCACA | 1.52 |
| TACTGACCAA | 1.13 |
| GCAGCGATAT | 6.4 |
| ACGGGGCACT | 1.03 |
| GGGAGACGAA | 0.99 |
| CAAGCTAGCT | 0.979 |
| ATTGTTTCTG | 0.963 |
| AAGATTGAG | 1.01 |
| AGGAGATGTT | 0.98 |
| CGTTGGCATT | 1.08 |
| ACGTGCTGTC | 0.977 |
| CATTGGGTAC | 1.02 |
| TTTCTATCTA | 1.01 |
| GTTGACTAAC | 0.966 |
| GTTAGGAATG | 0.982 |
| CCATAAGGCG | 1.02 |
| AGGACTTTGA | 1.02 |
| CTCCAGGTGC | 2.93 |
| TTACTCCTAC | 1.91 |
| GTTTTGTTT | 0.981 |
| ATACGGTGTG | 1.01 |
| ATGAGGGATC | 0.919 |
| GATAGTGTGT | 0.981 |

| Sequence | switch fluorescence ratio |
| --- | --- |
| CTAGCATGAG | 1.05 |
| AGCCAGCTGG | 0.98 |
| TGGGCCGAAC | 0.989 |
| GTCCATATGT | 1.03 |
| TGCGGAGGGA | 1.11 |
| GGAAGAAAGG | 1.03 |
| GCTTGATGCG | 1.01 |
| CGCTTGGTTG | 0.97 |
| GACGACAGAT | 1.14 |
| GCGGTCCTTT | 1 |
| TTCGTAAGGC | 1.18 |
| TAGTCGCGTG | 0.995 |
| GCATGAATGG | 0.988 |
| TATGGCGCT | 1.04 |
| GTGTGAGGTA | 0.963 |
| TTTGAGCCGA | 1.04 |
| ATCAGGCCAA | 1.1 |
| TACACGAACC | 1.33 |
| TACTAACCTC | 1.11 |
| TCTGGGGACG | 0.997 |
| GGGGCTAGGA | 0.966 |
| AGTCACGAGA | 1.02 |
| TGGCCTTAAA | 0.962 |
| CCATAAATTA | 1.01 |
| TCGTTCTGCT | 1 |
| TTCTGGTGGT | 0.972 |

| Sequence | switch fluorescence ratio |
| --- | --- |
| TGGCCTTTTT | 0.978 |
| TTCGCCCGTG | 1.04 |
| AATGGAGG | 0.995 |
| GGTACGGAGC | 1.06 |
| CGGTTGTGGA | 1.01 |
| GACCCACAAA | 1.24 |
| TTCGTCACCC | 0.952 |
| ACGTGTACGT | 1.02 |
| ACTACTCCCG | 1.4 |
| TCAGGGTTAG | 0.994 |
| TTGAATGACG | 0.965 |
| CTGAGATGGT | 1 |
| TCAAACGTCC | 1.08 |
| AGGAACCCGT | 0.993 |
| CGTGTTTCCC | 1.01 |
| TCCCACGTGG | 0.984 |
| GTCAAAAGGA | 1.02 |
| CAACATTGGC | 1.15 |
| CCTGGCGATA | 3.43 |
| TTGGTGGGAC | 0.963 |
| AGGTGCTGAA | 1.01 |
| TTTCAACAGT | 0.993 |
| GGGTGGCGT | 1.02 |
| TACGCGCTA | 1.87 |
| TAACTAACAT | 1.1 |
| AGATTGACAC | 1.01 |

| Sequence | switch fluorescence ratio |
| --- | --- |
| TACCTTGTA | 0.994 |
| ACGGCGAAGT | 1.03 |
| TCTCTTTATA | 0.963 |
| GCTAGGGTG | 1.02 |
| TTGCGTCTGT | 1.03 |
| TAGGTACGTG | 1.05 |
| GTCAGGGTG | 1.17 |
| TGCGGTGCAT | 0.992 |
| CGGGTCAGAA | 1.01 |
| GCTTTAGCGT | 0.974 |
| GCTGGGAAGT | 0.956 |
| TCCAAATGTT | 1 |
| GTATTAGTCG | 1.05 |
| GCATGACGTC | 1.01 |
| TGTTACAGCT | 1.04 |
| ATGCACGATC | 1.02 |
| GTACTTTAGT | 1.01 |
| TTTGCCCTGC | 0.989 |
| AAGTAAAAAA | 1.13 |
| CACTCTCTAT | 1.05 |
| AGAGGCAGGC | 1.05 |
| AGTTCCTTTT | 1.02 |
| GCCACCTCGG | 0.998 |
| TCGATTGGTT | 0.975 |
| TTCACGGGGT | 1 |
| ATTAATCTGT | 1 |

| Sequence | switch fluorescence ratio |
| --- | --- |
| ACGTGACAGC | 1.2 |
| AAATGAAGCT | 0.973 |
| AATGGAAACT | 0.992 |
| TGCATTAGGT | 0.979 |
| TGAGAGCTAA | 1.02 |
| ACCGCGCCGG | 0.956 |
| GTTTACTTTG | 1.08 |
| ATTCAAGCTA | 1.03 |
| AGCAGTGTTG | 1.01 |
| CCACCTTTCG | 1.19 |
| ATACCGCGTG | 1.01 |
| GCCGATATTT | 1.05 |
| AACTTGACAG | 1.05 |
| TTTGCCGCAT | 1.15 |
| CGAAGTGAAT | 1.06 |
| TCAGTAGATG | 0.951 |
| TCGAGAAAGT | 0.948 |
| GGCTCGTGGG | 1.03 |
| ACTCCCCTCG | 3.86 |
| AGAGTAAAAA | 0.951 |
| ATCAAACGC | 1.01 |
| TAAGTTGCAA | 0.952 |
| TTCTCGCACG | 1.15 |
| CGTTATGTGA | 0.968 |
| TTTGCCCGCT | 1.01 |
| GATGCCCGT | 1.01 |

| Sequence | switch fluorescence ratio |
| --- | --- |
| AACCAACCTT | 1.51 |
| TGTAAATCAT | 0.986 |
| GTATCGTATT | 1.02 |
| CCAAGGCAAG | 4 |
| AGATGTCTAG | 0.987 |
| AAATCGGATT | 1.03 |
| CCTTGATTTC | 0.977 |
| GGGGCTCCCA | 1.2 |
| CGCGGGGGCA | 1.01 |
| GATACTCGGG | 0.953 |
| CATTGCTGTC | 1.08 |
| CACGAGGTAC | 1.04 |
| TCAGTGACT | 1.02 |
| CGTGAGAAGC | 1.01 |
| CATATTGGT | 1.01 |
| ATAAGGGTGG | 0.953 |
| ATCGTCATAA | 1.02 |
| CGATCTACTC | 1.15 |
| CGTAACAGCG | 0.957 |
